Assay results published in PubChem BioAssay AID624170 (National Center for Advancing Translational Sciences (NCATS), 2012).
The whole screen tested about 410,000 compounds, of which about 850 (0.21%) were called active. The inconclusive results got no clear call from the source; some entries with a clear call stand among them for comparison. The call rests on the fitted dose curve; in most records, active means well fitted inhibition curve with a large enough effect; inconclusive means small, poorly fitted or top-dose-only effect, or another doubt; inactive means no such curve, though single readings can be large or run the other way. Potencies of inconclusive entries are left out as doubtful fits.
On the % scale 0 is the no-effect control and ±100 the full control effect; potency means the concentration at half of the fitted maximal effect; tags describe the fitted curve by direction and shape.

These compounds were tested against Glutaminase kidney isoform, mitochondrial (Homo sapiens) (UniProt O94925) (assay: qHTS for Inhibitors of Glutaminase (GLS)). Conditions: GLS enzymatic activity, qHTS titration; series mostly up to 45.5 µM; activity change, negative = inhibition: at the top concentration.
Chain of UniProt O94925 (O94925 whole entry, looked up, canonical isoform): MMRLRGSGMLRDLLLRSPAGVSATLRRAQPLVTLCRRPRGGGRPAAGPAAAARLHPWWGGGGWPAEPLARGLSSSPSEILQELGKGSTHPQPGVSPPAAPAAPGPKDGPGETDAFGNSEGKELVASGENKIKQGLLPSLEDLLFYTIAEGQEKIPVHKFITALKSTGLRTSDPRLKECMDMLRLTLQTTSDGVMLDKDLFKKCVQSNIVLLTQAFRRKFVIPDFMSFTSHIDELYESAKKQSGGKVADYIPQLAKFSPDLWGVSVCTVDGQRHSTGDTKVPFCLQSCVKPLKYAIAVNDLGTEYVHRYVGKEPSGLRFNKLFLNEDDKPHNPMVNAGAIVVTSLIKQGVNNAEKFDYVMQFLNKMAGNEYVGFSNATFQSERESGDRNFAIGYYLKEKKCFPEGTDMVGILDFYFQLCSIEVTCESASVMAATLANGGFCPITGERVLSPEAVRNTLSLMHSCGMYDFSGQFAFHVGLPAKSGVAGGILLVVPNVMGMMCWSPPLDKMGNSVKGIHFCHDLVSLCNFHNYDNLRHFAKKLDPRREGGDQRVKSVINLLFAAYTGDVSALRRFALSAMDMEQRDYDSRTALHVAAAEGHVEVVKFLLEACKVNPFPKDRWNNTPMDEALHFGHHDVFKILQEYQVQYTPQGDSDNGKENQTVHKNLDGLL
Summary of the method: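 Human kidney-isoform GLS in 45 mM KH2PO4 pH 8.2, 0.02% Tween-20, with compound, started with 1mM L-Glutamine (added stock). Glutamate oxidase/HRP/Amplex red coupled fluorescence read at start and after 30 min at RT.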
For Cc1ccc2cc(CN(Cc3ccco3)S(=O)(=O)c3c(C)ccc4nsnc34)c(=O)[nH]c2c1, the “activity change, negative = inhibition” value was inactive: 0.235%.
COCCCNC(=S)N/N=C/c1cccc(OC)c1O was tested, and the Potency was inconclusive [inhibitor, partial curve].
For COc1cccc2c(=O)c3cccc(N)c3[nH]c12, the “activity change, negative = inhibition” value was inactive: 18%.
For CCOC(=O)/C(C#N)=C1\CC2CCC1(C)C2(C)C (stereo not given), the Potency was inconclusive [inhibitor, single point].
For O=C(CNc1ccc(Br)cc1)NC(=O)NC1CCCCC1, the “activity change, negative = inhibition” value was inactive: 11.4%.
In the case of COc1ccc(NC(=O)CSc2ncnc3[nH]ncc23)cc1, the Potency is reported as inconclusive [inhibitor, single point].
With COc1cc(-c2cc(OC)c3c(C)oc(C)c3c(=O)c2)ccc1OC(=O)c1cccc(Cl)c1 the Potency was inconclusive [inhibitor, single point].
In the case of O=C1CN(C(=O)c2cccc([N+](=O)[O-])c2)CC(=O)N1, the Potency is reported as inconclusive [inhibitor, single point].
CC(C)CN1C(=O)c2ccc(C(=O)Nc3ccc(O)cc3C(=O)O)cc2C1=O was tested, and the Potency was inconclusive [inhibitor, partial curve, poor fit].
Cc1ccsc1/C=C1\SC(N)=NC1=O was tested, and the “activity change, negative = inhibition” value was inactive: -6.08%.
Cc1ccc(-n2c(C)cc(/C=C3\NC(=O)NC3=O)c2C)c(C)c1 was tested, and the Potency was inconclusive [inhibitor, single point].
COc1ccc(C(=O)Nc2ccc(NC(=O)Cc3ccccc3)cn2)cc1 was tested, and the Potency was inconclusive [inhibitor, single point].
With COc1cc(SC)ccc1C(=O)N1CC(C)OC(C)C1 (stereo not given) the “activity change, negative = inhibition” value was inactive: -4.28%.
With COc1ccc(/C=N/Nc2ncnc3sc4c(c23)CCCC4)cc1OC the Potency was inconclusive [inhibitor, single point].
For CCc1ccc(OCC(O)CN2CCN(c3ccccn3)CC2)cc1 (stereo not given), the “activity change, negative = inhibition” value was inactive: 9.91%.
COc1cc2oc(=O)cc(CN3CCN(c4ccccc4F)CC3)c2cc1Cl was tested, and the Potency was inconclusive [inhibitor, partial curve].
Cc1ccc2c(c1)c1ccc3c(c1n2C)C(=O)C=CC3=O was tested, and the “activity change, negative = inhibition” value was inactive: -21.3%.
In the case of COC(=O)COc1ccc(C2Nc3c(Cl)ccc(C(=O)O)c3C3C=CCC32)cc1 (stereo not given), the Potency is reported as inconclusive [inhibitor, single point].
For Cc1ccc(CNC(=O)c2ccc(-n3cccc3)cc2)cc1, the Potency was inconclusive [inhibitor, partial curve].
In the case of COc1ccc(Cl)cc1NC(=O)CN(C)CC(=O)Nc1ccccc1-c1ccccc1, the “activity change, negative = inhibition” value is reported as inactive: -13.8%.
With CN(C)S(=O)(=O)c1cccc(-n2sc3ccccc3c2=O)c1 the Potency was inconclusive [inhibitor, partial curve, poor fit].
CCOC(=O)C1(Cc2ccccc2C(F)(F)F)CCN(C(C)CSC)CC1 (stereo not given) was tested, and the “activity change, negative = inhibition” value was inactive: 10.2%.
With O=C(NCN1C(=O)C2C3C=CC(C3)C2C1=O)Nc1ccccc1O (stereo not given) the Potency was inconclusive [inhibitor, partial curve].
With Cc1ccc2c(CN(C)Cc3ccc(Cl)cc3Cl)cc(=O)oc2c1 the Potency was inconclusive [inhibitor, single point].
With CCOC(=O)c1ccccc1NC(=O)N(C)CCc1c(C)nn(CC)c1C the “activity change, negative = inhibition” value was inactive: 0.113%.
With CCN1CCN(C(=S)c2ccc(Cl)cc2)CC1 the Potency was inconclusive [inhibitor, single point].
In the case of O=C(O)CCN1c2cccc3cccc(c23)S1(=O)=O, the “activity change, negative = inhibition” value is reported as inactive: -12.6%.
For Cc1cc(Nc2cccc(Cl)c2)nc2ccc(NC(=O)c3cccnc3)cc12, the “activity change, negative = inhibition” value was inactive: -11.7%.
For CCOC(=O)N1CCN(c2c(N3CCN(c4ccccn4)CC3)c(=O)c2=O)CC1, the “activity change, negative = inhibition” value was inactive: 10.2%.
C=C(C)CCOC(=O)C(CC(=O)O)NCc1ccco1 (stereo not given) was tested, and the “activity change, negative = inhibition” value was inactive: -14.7%.
In the case of COc1cccc(NC(=S)/C(=C(\[O-])c2cc(C)n(-c3ccccc3F)c2C)[n+]2ccc(N(C)C)cc2)c1, the “activity change, negative = inhibition” value is reported as inactive: 10.6%.
CCn1c(CN2c3ccccc3Sc3ccccc32)n[nH]c1=S was tested, and the Potency was inconclusive [inhibitor, single point].
In the case of CN1CCc2nc(SCCOc3ccccc3)c(C#N)cc2C1, the Potency is reported as inconclusive [inhibitor, single point].
With NC1=C(c2ccc([N+](=O)[O-])cc2)C(=O)CO1 the “activity change, negative = inhibition” value was inactive: 20.6%.
COc1cc(NC(=O)C2CCCN(S(=O)(=O)c3ccc4c(c3)oc(=O)n4C)C2)c(C(=O)O)cc1OC (stereo not given) was tested, and the “activity change, negative = inhibition” value was inactive: -5.84%.
O=c1c2ccccc2nc2oc3ccccc3n12 was tested, and the Potency was inconclusive [inhibitor, single point].
For CCOc1ccc(NCC(=O)c2ccc(C)cc2)cc1, the Potency was inconclusive [inhibitor, partial curve, poor fit].
With COc1ccc(S(=O)(=O)Nc2cccc3ccc(O)cc23)cc1 the Potency was active: 11.2 µM.
For Cc1cc(C)n2c(=O)c3ccc(Cl)cc3nc2c1C#N, the Potency was inconclusive [inhibitor, partial curve, poor fit].
With CC(C[N+](C)(C)C)OC(=O)C1(c2ccccc2)CCCC1 (stereo not given) the “activity change, negative = inhibition” value was inactive: -2.78%.
In the case of COc1cc(CNc2ccc(N3CCCC3)cc2)ccc1OCc1ccccc1, the “activity change, negative = inhibition” value is reported as inactive: 23.9%.
For NS(=O)(=O)c1ccc(NC(=O)CSc2nnc(NC3CC3)s2)cc1, the Potency was inconclusive [inhibitor, partial curve, poor fit].
CC(C)C[C@H](NC(=O)[C@@H](Cc1ccccc1)n1c(=O)[nH]c2ccccc2c1=O)C(=O)N[C@@H](Cc1ccccc1)C(=O)O was tested, and the Potency was inconclusive [inhibitor, single point].
For C(=N\C(/N=C/c1ccco1)c1ccco1)/c1ccco1, the Potency was inconclusive [inhibitor, single point].
For COc1cccc(C2=CC(c3ccc(OC)c(OC)c3OC)n3ncnc3N2)c1 (stereo not given), the Potency was inconclusive [inhibitor, single point].
For O=C(CSc1nc(-c2ccccc2)no1)N1CCN(c2ccccc2F)CC1, the “activity change, negative = inhibition” value was inactive: -1.77%.
With COc1ccc(OCCC(=O)OCC(=O)Nc2cccc(S(=O)(=O)N3CCCCC3)c2)cc1 the Potency was inconclusive [inhibitor, single point].
In the case of Cc1ccc(S(=O)(=O)NNC(=S)Nc2ccc(Cl)cc2)cc1, the Potency is reported as inconclusive [inhibitor, single point].
In the case of Nc1nc(CN2CCOCC2)cs1, the Potency is reported as inconclusive [inhibitor, single point].
For COc1ccc2c(c1)c(=O)oc1c(C)c(OCc3ccc(C(=O)O)cc3)ccc12, the Potency was inconclusive [inhibitor, single point].
With Cc1onc(-c2ccc(Cl)cc2Cl)c1-c1csc(N/N=C/c2ccccc2)n1 the Potency was inconclusive [inhibitor, single point].
With Cc1ccc(C(=O)COC(=O)c2ccc3c(c2)C(=O)N(c2cccc4ncccc24)C3=O)cc1C the Potency was inconclusive [inhibitor, single point].
For CCOCCCN(CC(=O)NC1CCCC1)C(=O)C(=O)Nc1ccc2c(c1)OCCO2, the Potency was inconclusive [inhibitor, partial curve, poor fit].
For Cc1cc(C=O)c(C)n1-c1ccc(Cl)c(C(=O)O)c1, the Potency was inconclusive [inhibitor, single point].
CCOC(=O)c1c(NC(=O)CC2Nc3ccccc3NC2=O)sc(C)c1C (stereo not given) was tested, and the Potency was active: 12.6 µM.
In the case of CC(C)c1ccc(NC(=O)c2cc(S(=O)(=O)NCC3COc4ccccc4O3)ccc2F)cc1 (stereo not given), the “activity change, negative = inhibition” value is reported as inactive: 5.17%.
For Cc1c(Cl)ccc2c(C(=O)NCCN3CCCCC3)cc(-c3ccccn3)nc12, the Potency was inconclusive [inhibitor, single point].
For CN1CCN(NC(=O)CN(C)S(=O)(=O)c2cc(Cl)ccc2Cl)CC1, the Potency was inconclusive [inhibitor, single point].
With Cn1c(=O)c2c(nc(N/N=C/c3ccco3)n2C)n(C)c1=O the Potency was inconclusive [inhibitor, single point].
For Cc1cc(N/N=C/c2ccccc2F)c2ccccc2n1, the Potency was inconclusive [inhibitor, single point].
CN(CC(=O)Nc1cccc(F)c1)C(=O)C1CC(=O)N(Cc2ccco2)C1 (stereo not given) was tested, and the Potency was inconclusive [inhibitor, partial curve, poor fit].
With COc1ccc(CCNC(=O)CCCCn2c(=O)c3ccccc3n(Cc3ccc(F)cc3Cl)c2=O)cc1OC the “activity change, negative = inhibition” value was inactive: 0.31%.
With O=C(Cc1ccc(S(=O)(=O)N2CCOCC2)s1)Oc1ccc(F)cc1 the Potency was inconclusive [inhibitor, partial curve].
In the case of COc1cccc(/C=N/NC(=O)NC23CC4CC(CC(C4)C2)C3)c1O, the Potency is reported as inconclusive [inhibitor, single point].
With CCOC(=O)C1CCN(C(=O)c2ccc3c(c2)S(=O)(=O)c2ccccc2C3=O)CC1 the Potency was inconclusive [inhibitor, partial curve, poor fit].
With CC(C(=O)Nc1ccccc1-c1ccccc1)N1CCN(Cc2ccccc2)CC1 (stereo not given) the Potency was inconclusive [inhibitor, single point].
For COC(=O)c1ccc(NC(=O)C(=O)NCCc2sc(-c3cccc(F)c3)nc2C)cc1, the “activity change, negative = inhibition” value was inactive: 2.97%.
CC1=NOC(=O)/C1=C\c1ccc(-c2ccccc2Br)o1 was tested, and the Potency was inconclusive [inhibitor, single point].
In the case of COc1ccc(C2(c3ccc(OC(C)=O)cc3OC(C)=O)CC(c3ccccc3)NC(=S)N2)cc1 (stereo not given), the Potency is reported as inconclusive [inhibitor, single point].
With Cc1cccc(Nc2nc(N)c(C#N)c(CC#N)c2C#N)c1 the Potency was inconclusive [inhibitor, single point].
